# The whole screen tested about 150,000 compounds, of which about 540 (0.36%) showed an effect of 50% or more. The list shows a part of the results.
# System: Plasmodium falciparum
# Test: Primary screen in NF54 nanoGlo assay, in single point, at 2uM, 72h; a lower Z score goes with more inhibition
# Assay type: functional, Erythrocyte
# Details: timepoint 72 hour
SMILES,% Inhibition [%],Z score
CCOc1ccccc1NC(=O)c1ccc(F)c(S(=O)(=O)n2c(/C=C/c3ccccc3)nc3ccccc32)c1,-10,1.31
CCn1cc(C2OCCC2CNCc2cnc(N(C)C)s2)cn1 (stereo not drawn),-13,1.44
CNc1cc(-c2cc(C)c3nc(C)nn3c2)c2cc[nH]c2n1,-10,1.87
CCCNC(=O)c1[nH]cnc1C(=O)N[C@H]1CCc2ccccc21,12,-1.42
O=C(Nc1ccc2cc[nH]c2c1)N1CCO[C@H](c2ccc(C(F)(F)F)cc2)C1,5,-0.59
Cc1ncccc1OCc1nnc(C2CC2)o1,-2,0.24
C[C@H]1CC(F)(F)CCN1Cc1cc(C(=O)O)cs1,-2,0.17
CC(C)n1cnc(C(=O)N2CCC3C(CCCN3C3CC3)C2)c1 (stereo not drawn),-5,0.57
C[C@@H](CN1CCCC1=O)NC(=O)NC1CCCCCCC1,-32,3.77
COC(=O)N1CC(C)(NC(=O)Nc2ncccc2OC)C1,-8,1.17
NC(=O)c1nsc2c(=O)n(CC(=O)Nc3ccccc3F)cnc12,-13,1.68
CC1CC1C(=O)NCCC(=O)NCCCOc1ccc(F)cc1 (stereo not drawn),-15,1.34
CN1CCn2nc(C(=O)N3C[C@H]4CCC[C@H]4C3)cc2S1(=O)=O,-2,0.37
Cn1cnc(C(=O)NCC2CC(F)(F)C2)c1,-6,1.28
O=C(Nc1cccc2ncccc12)NC1CCN(Cc2cccs2)CC1,-3,0.58
O=C([C@@H]1COc2ccccc2O1)N(c1ccccc1)c1nc2ccccc2s1,-13,2.48
Cc1ccc(Cc2nc(N3CCN(CCC(C)C)CC3)c3c(C)nn(-c4ccccc4)c3n2)cc1,-4,0.42
C[C@@H](Cc1csc2ccccc12)NC(=O)c1ccccc1F,-4,0.45
O=C(Nc1nc2ccccc2[nH]1)[C@@H]1COCCO1,-8,0.76
CC(C)c1noc(-c2ccnc(NCC3(N(C)C)CCOCC3)c2)n1,0,-0.01
CN1CCN(c2ccccc2NC(=O)c2cc(=O)[nH]c3ccccc23)CC1,-2,0.2

SMILES,% Inhibition [%],Z score
Cc1cc(C)n(CCN(C)Cc2ccc(OC(C)C)c(CO)c2)n1,0,-0.02
COc1ccc(CN(C)C(=O)c2[nH]c(=O)[nH]c2C)cc1Cl,-3,0.52
COCCc1noc(CN2CCCc3occc3C2)n1,-37,4.3
COc1cc(Cl)ccc1CNC(=O)[C@H]1C[C@@H]1C(F)(F)F,1,-0.1
CC(=O)NCCC(=O)N[C@H](CCC(=O)OCc1ccccc1)C(=O)OCc1ccccc1,-1,0.13
CN(C)CC1(NC(=O)c2ccc(Cl)cc2)CC1,-4,0.63
COc1cccc(C(=O)/N=C(\NCc2ccccn2)OCC(C)C)c1,5,-0.96
CCN1CCC[C@H]1CNC(=O)c1cnc(-c2cccnc2)nc1,10,-1.61
Cc1ccc(C(=O)Nc2cccnc2C2CC2)cn1,-5,0.76
O=C(O)[C@H]1CCCN1C(=O)[C@@H]1CCCN1C(=O)[C@H](Cc1ccccc1)n1c(=O)[nH]c2ccccc2c1=O,-4,0.57
CC1=NS(=O)(=O)NC(C)=C1CCC(=O)Nc1ccccc1Oc1ccccc1Cl,-13,2.16
O=C1C[C@]2(CCN(c3cc(-c4ccccc4)nc4ccccc34)C2)C(=O)N1,-14,1.34
Cc1ccc(NC(=O)Cn2c(C)nc(-c3ccccn3)cc2=O)c(Br)c1,-4,0.49
CCOC1CC(CO)(NCc2ccon2)C1(C)C (stereo not drawn),-4,0.58
CC1(C)CCc2ccccc2[C@H]1NC(=O)c1cc2c(=O)[nH]cnc2cn1,-1,0.09
CN(Cc1ccccc1)[C@@H]1COC2(C1)CN(C(=O)CC1CCCC1)C2,-15,2.35
O=C(COc1nnc(-c2ccccc2)o1)c1ccc2c(c1)COC2,-19,1.68
Cn1nc(-c2ccncc2)cc1CNC(=O)c1ccc(Oc2ccccc2)cc1,-11,1.26
Cc1nc(-n2nc(C)c(CCC(=O)Nc3cccc(Cl)c3C)c2O)sc1C,-9,1.18
CCc1ccc(CN(C)Cc2ccncc2)o1,-11,1.56
Cc1nc(N)ncc1C(=O)N(C)CCc1nc2ccccc2[nH]1,-12,1.93

SMILES,% Inhibition [%],Z score
CC(C)[C@@H]1CN(C(=O)CCn2ccccc2=O)c2ccccc2N1,-21,1.76
N#CC1(C(N)=O)C(c2ccccc2)CC(=O)CC1c1ccccc1 (stereo not drawn),-10,1.3
COc1ccc(CN(C(=O)c2ccoc2)c2ccncc2)cc1,-12,1.89
CC(=O)c1cnn(-c2cc(Oc3ccc(S(=O)(=O)c4ccccc4)cc3)nc(C)n2)c1C,-15,1.9
Cc1cnn(CCC(=O)N2CC[C@H](O)C[C@@H]2C)c1,-7,0.97
CC(=O)N1CCN(C(=O)C2Cc3cc(C(F)(F)F)ccc3N3CCN(Cc4ccccc4)CC23)CC1 (stereo not drawn),9,-1.12
O=C(c1nn2c(c1Cl)N[C@@H](c1cccs1)C[C@H]2C(F)(F)F)N1CCN(c2ccc(F)cc2)CC1,-8,1.28
CCOc1ccc(Nc2c3ccccc3nc3ccccc23)cc1,81,-10.53
Cc1ccc(OCC(=O)N2N=C3CCCCC3C2(O)C(F)(F)F)c(C)c1 (stereo not drawn),4,-0.45
Cc1cc2oc(-c3cc4c(cc3C)C(C)(C)[C@H](C)C4(C)C)c(CC(=O)O)c2c(=O)[nH]1,2,-0.26
CN(CC(=O)Nc1nsc2ccccc12)S(C)(=O)=O,-10,1.57
Cc1nc2ccc(S(=O)(=O)Nc3ccc(Cl)cc3)cc2nc1C,-5,0.68
Cc1cccc(N(C)S(=O)(=O)c2c(-c3ccccc3)csc2C(=O)Nc2ccc(F)c(F)c2)c1,-5,0.7
O=C(Cc1csc(-c2ccccc2)n1)N1CCOC[C@@H](CO)C1,-5,0.95
CCn1ccnc1CN1CCC[C@H](CCC(=O)N(C)C2CCN(C)CC2)C1,-2,0.26
O=C(CN1CCN(Cc2ccccc2)CC1)Nc1ccc2c(c1)CCNC2=O,-11,1.83
CC(C)Cn1cc(NCc2ccncc2)cn1,2,-0.19
FC(F)(F)c1cc(N2CCc3cncnc3C2)nc(-c2ccncc2)n1,3,-0.31
CCNC(=O)N1CCC2(CC1)N[C@@H](Cc1ccccc1)C(=O)N2Cc1ccc(F)cc1,-10,0.94
CCN(CC)C(=O)c1ccc(Cl)c(NC(=O)[C@@H]2C=CCN2)c1,-2,0.25
O=C(CCc1cc(O)no1)N1CCC[C@H](Cc2nc3ccccc3[nH]2)C1,-22,2.54

SMILES,% Inhibition [%],Z score
COc1ccc(CC(=O)Nc2cc(C(C)(C)C)nn2[C@H]2CCS(=O)(=O)C2)cc1,-15,2.87
CCN(C(=O)C1C(C=C(C)C)C1(C)C)C1CCS(=O)(=O)C1 (stereo not drawn),-16,1.31
CNC(=O)N1CC[C@H](Cc2noc(-c3ccncc3)n2)C1,-7,0.86
Cc1ccc2nc(C(=O)N3CCC[C@H](N4CCCC4=O)CC3)ccc2c1,8,-1.15
Cc1ccc([C@H]2Nc3ccccc3C(=O)N2c2ccc3c(c2)OCO3)s1,-5,0.93
Cc1cc(-c2ccc(C(=O)N3CCNC[C@@H]3C)cc2)cnc1-n1cnnc1,-9,1.77
Cc1ccc(-n2nc(C(=O)NC3CC3)cc2C)cc1,0,-0.01
COc1cc(-c2cc(N)n(S(=O)(=O)c3cccc4nsnc34)n2)cc(OC)c1OC,-1,0.22
CN(CC1(c2ccccc2)CC1)C(=O)c1cc(C(=O)O)ccn1,10,-0.99
N#CCCN(C(=O)c1cccc(OC(F)F)c1)C1CCOCC1,-7,0.76
Cc1nnnn1Cc1nc(C(F)(F)F)cs1,27,-3.09
CCOC(=O)C(C)(C)c1csc(CN2C(=O)CCC2=O)n1,-4,0.69
C[C@@H](CNC(=O)N(C)Cc1cscn1)Oc1ccc(Cl)cc1,-4,0.47
COc1cc(CNc2ccc(Oc3ccccc3)cc2)cc(Cl)c1OCc1ccccc1Cl,35,-3.97
CN1N=C(C(=O)NOCc2ccccc2)CCC1=O,-3,0.43
CC(=O)N(C)c1ccccc1NC(=O)NCCc1c(F)cccc1F,-9,1.7
N#CCC(=O)Nc1nc(-c2ccc(Oc3ccccc3)cc2)cs1,30,-4.06
Nc1cc(Cl)cc(Cl)c1C(=O)O,9,-1.01
Cc1nc([C@H]2CCCNC2)n(-c2cccc(C)c2C)n1,-15,2.51
CCOc1cc2c(cc1OCC)[C@H](c1cc3ccccc3s1)NCC2,34,-3.83
O=C(CN1CCOC1=O)N1CCC[C@H](Oc2ncc(F)cn2)C1,-4,0.77
